From patent publication US11795195B2, “Antibody-drug conjugates including hemiasterlin derivative” (Sumitomo Pharma Co., Ltd., priority 2017, dated 2023)

How the values were obtained:
LS174T = test: Cellular Toxicity Test (3) for ADCs; type: cell-based; settings: treatment with 333 nM of ADC
Description: (§1) In accordance with the method described in Test Example 3 or Test Example 7, cellular toxicities of Example ADCs were measured using the cell types shown in the following table. As an indicator for the cellular toxicity, IC50 or the cell survival rate upon the treatment with 333 nM of ADC was measured. However, for ADC 51, the cell survival rate upon the treatment with 26.6 nM of ADC51 was measured.

HL-60 = test: Cellular Toxicity Test (3) for ADCs; type: cell-based; settings: HL-60, treatment with 333 nM of ADC
Description: as §1

B1: ADC47: ADC of Labetuzumab and M4, average DAR 8 (conjugate, chains of the INN, looked up)
heavy: EVQLVESGGGVVQPGRSLRLSCSASGFDFTTYWMSWVRQAPGKGLEWIGEIHPDSSTINYAPSLKDRFTISRDNAKNTLFLQMDSLRPEDTGVYFCASLYFGFPWFAYWGQGTPVTVSSASTKGPSVFPLAPSSKSTSGGTAALGCLVKDYFPEPVTVSWNSGALTSGVHTFPAVLQSSGLYSLSSVVTVPSSSLGTQTYICNVNHKPSNTKVDKRV[human IgG1 Fc left out]
light: DIQLTQSPSSLSASVGDRVTITCKASQDVGTSVAWYQQKPGKAPKLLIYWTSTRHTGVPSRFSGSGSGTDFTFTISSLQPEDIATYYCQQYSLYRSFGQGTKVEIKRTVAAPSVFIFPPSDEQLKSGTASVVCLLNNFYPREAKVQWKVDNALQSGNSQESVTEQDSKDSTYSLSSTLTLSKADYEKHKVYACEVTHQGLSSPVTKSFNRGEC
modifications: drug-linker M4, DAR 8
Cell survival rate (%) (LS174T): 62%

B2: ADC46: ADC of Gemtuzumab and M4, average DAR 8 (conjugate, chains of the INN, looked up)
heavy: EVQLVQSGAEVKKPGSSVKVSCKASGYTITDSNIHWVRQAPGQSLEWIGYIYPYNGGTDYNQKFKNRATLTVDNPTNTAYMELSSLRSEDTAFYYCVNGNPWLAYWGQGTLVTVSSASTKGPSVFPLAPCSRSTSESTAALGCLVKDYFPEPVTVSWNSGALTSGVHTFPAVLQSSGLYSLSSVVTVPSSSLGTKTYTCNVDHKPSNTKVDKRV[human IgG4 Fc with S228P (EU numbers) left out]
light: DIQLTQSPSTLSASVGDRVTITCRASESLDNYGIRFLTWFQQKPGKAPKLLMYAASNQGSGVPSRFSGSGSGTEFTLTISSLQPDDFATYYCQQTKEVPWSFGQGTKVEVKRTVAAPSVFIFPPSDEQLKSGTASVVCLLNNFYPREAKVQWKVDNALQSGNSQESVTEQDSKDSTYSLSSTLTLSKADYEKHKVYACEVTHQGLSSPVTKSFNRGEC
modifications: drug-linker M4, DAR 8
Cell survival rate (%) (HL-60): 78%
